{"source": "the supplement of paper PMC10126150", "note": "Sequences with one replicate were seen in a single cluster, so their values are uncertain.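 Further: ATP exposure 15 min at 22 °C before imaging.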"}
{"test_system": "ATP", "test": "switch fluorescence ratio, 500 uM ATP over buffer (Cy3 cluster intensity, sum of 5 cycles each) (fold (ratio)); higher = stronger signal-on switching upon ATP binding; sequences stand for … in TCGTCGGCAGCGTCAGATGTGTATAAGAGACAGTTTTTTTTTTTTTTTTTTTTTTTTT…TC", "details": "aptamer strand: ATP DNA aptamer (quencher-CACCTGGGGGAGTATTGCGGAGGAAGG + anchor), 100 nM annealed; ATP concentration: 500 uM; one replicate", "how_it_was_run": "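Values give the fluorescence ratio for each switch-domain sequence, averaged from per-cluster ratios of summed target-cycle to summed buffer-cycle Cy3 intensity. The Cy3-labelled switching-strand clusters sat on a modified Illumina MiSeq flow-cell, were annealed to 100 nM quencher-labelled ATP aptamer, and were imaged in selection buffer, then after 15 min with 500 uM ATP at 22 °C. Five cycles ran with NaOH stripping and re-annealing between them, and clusters outside 100-1000 RFU were excluded.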"}
{"sequence": "GTGCACAGTG", "switch fluorescence ratio": 1.01}
{"sequence": "GTGCACCTAA", "switch fluorescence ratio": 1}
{"sequence": "GTGCAGCAAC", "switch fluorescence ratio": 1.27}
{"sequence": "GTGCATAACG", "switch fluorescence ratio": 0.95}
{"sequence": "GTGCATAGGA", "switch fluorescence ratio": 1.03}
{"sequence": "GTGCCAGTCC", "switch fluorescence ratio": 1.07}
{"sequence": "GTGCCGGGCA", "switch fluorescence ratio": 0.981}
{"sequence": "GTGCGCGTTG", "switch fluorescence ratio": 1.03}
{"sequence": "GTGCGTAATG", "switch fluorescence ratio": 1.03}
{"sequence": "GTGCGTATTG", "switch fluorescence ratio": 0.987}
{"sequence": "GTGCGTTTGA", "switch fluorescence ratio": 1.03}
{"sequence": "GTGCTCACAA", "switch fluorescence ratio": 1.01}
{"sequence": "GTGCTCCTGT", "switch fluorescence ratio": 1.01}
{"sequence": "GTGCTGGACA", "switch fluorescence ratio": 0.96}
{"sequence": "GTGCTGGCCG", "switch fluorescence ratio": 1.05}
{"sequence": "GTGCTGTGTC", "switch fluorescence ratio": 1.01}
{"sequence": "GTGGAATCAC", "switch fluorescence ratio": 1.01}
{"sequence": "GTGGAGAGAT", "switch fluorescence ratio": 0.999}
{"sequence": "GTGGAGTAGT", "switch fluorescence ratio": 1.02}
{"sequence": "GTGGAGTCGA", "switch fluorescence ratio": 0.969}
{"sequence": "GTGGATTACT", "switch fluorescence ratio": 1.02}
{"sequence": "GTGGCATGCG", "switch fluorescence ratio": 1.01}
{"sequence": "GTGGCATTCA", "switch fluorescence ratio": 1}
{"sequence": "GTGGGAAATT", "switch fluorescence ratio": 1.01}
{"sequence": "GTGGGAACGG", "switch fluorescence ratio": 1.02}
{"sequence": "GTGGGACAGT", "switch fluorescence ratio": 0.917}
{"sequence": "GTGGGATCGA", "switch fluorescence ratio": 1.02}
{"sequence": "GTGGGCGTAC", "switch fluorescence ratio": 1.62}
{"sequence": "GTGGGCTAAA", "switch fluorescence ratio": 0.995}
{"sequence": "GTGGGGATCG", "switch fluorescence ratio": 0.992}
{"sequence": "GTGGGGCATC", "switch fluorescence ratio": 0.984}
{"sequence": "GTGGGGCGC", "switch fluorescence ratio": 1.02}
{"sequence": "GTGGGTATGA", "switch fluorescence ratio": 1.01}
{"sequence": "GTGGGTTGC", "switch fluorescence ratio": 0.975}
{"sequence": "GTGGTACATC", "switch fluorescence ratio": 1.03}
{"sequence": "GTGGTACTAC", "switch fluorescence ratio": 1.03}
{"sequence": "GTGGTATGGC", "switch fluorescence ratio": 1.05}
{"sequence": "GTGGTCTGCT", "switch fluorescence ratio": 1}
{"sequence": "GTGGTGGTT", "switch fluorescence ratio": 0.963}
{"sequence": "GTGGTGTGGG", "switch fluorescence ratio": 1.02}
{"sequence": "GTGGTTGGTG", "switch fluorescence ratio": 0.994}
{"sequence": "GTGGTTTCAT", "switch fluorescence ratio": 0.973}
{"sequence": "GTGTAAACGG", "switch fluorescence ratio": 0.963}
{"sequence": "GTGTAACCCA", "switch fluorescence ratio": 0.972}
{"sequence": "GTGTAAGGT", "switch fluorescence ratio": 1.01}
{"sequence": "GTGTAAGTAA", "switch fluorescence ratio": 0.978}
{"sequence": "GTGTAGGC", "switch fluorescence ratio": 1.02}
{"sequence": "GTGTAGGGAC", "switch fluorescence ratio": 1.01}
{"sequence": "GTGTATACTC", "switch fluorescence ratio": 1.05}
{"sequence": "GTGTATCTG", "switch fluorescence ratio": 0.997}
{"sequence": "GTGTCCCTCA", "switch fluorescence ratio": 0.979}
{"sequence": "GTGTCCGTCA", "switch fluorescence ratio": 0.996}
{"sequence": "GTGTCGCCAT", "switch fluorescence ratio": 1.01}
{"sequence": "GTGTCGGTGT", "switch fluorescence ratio": 0.99}
{"sequence": "GTGTCTGCAG", "switch fluorescence ratio": 1.01}
{"sequence": "GTGTCTTAGT", "switch fluorescence ratio": 1}
{"sequence": "GTGTGATCGA", "switch fluorescence ratio": 1.11}
{"sequence": "GTGTGCCCGT", "switch fluorescence ratio": 1.03}
{"sequence": "GTGTGCTGTT", "switch fluorescence ratio": 0.989}
{"sequence": "GTGTGTAGTC", "switch fluorescence ratio": 0.999}
{"sequence": "GTGTGTAGTT", "switch fluorescence ratio": 0.987}
{"sequence": "GTGTGTCATG", "switch fluorescence ratio": 0.953}
{"sequence": "GTGTGTCGGC", "switch fluorescence ratio": 1.03}
{"sequence": "GTGTGTCTTT", "switch fluorescence ratio": 0.947}
{"sequence": "GTGTGTTAAG", "switch fluorescence ratio": 0.973}
{"sequence": "GTGTTCCATG", "switch fluorescence ratio": 1.01}
{"sequence": "GTGTTCTGCA", "switch fluorescence ratio": 0.988}
{"sequence": "GTGTTCTTGT", "switch fluorescence ratio": 0.976}
{"sequence": "GTGTTGGAGC", "switch fluorescence ratio": 0.972}
{"sequence": "GTGTTGGCAC", "switch fluorescence ratio": 0.998}
{"sequence": "GTGTTTACCT", "switch fluorescence ratio": 1.08}
{"sequence": "GTGTTTCCTC", "switch fluorescence ratio": 1.06}
{"sequence": "GTTAAACCTT", "switch fluorescence ratio": 2.36}
{"sequence": "GTTAAACGGG", "switch fluorescence ratio": 1.06}
{"sequence": "GTTAAAGTAA", "switch fluorescence ratio": 1.01}
{"sequence": "GTTAACGCTG", "switch fluorescence ratio": 1.03}
{"sequence": "GTTAACTGCC", "switch fluorescence ratio": 1.08}
{"sequence": "GTTAAGAACT", "switch fluorescence ratio": 1.06}
{"sequence": "GTTAAGAGAC", "switch fluorescence ratio": 1.02}
{"sequence": "GTTAATCGCT", "switch fluorescence ratio": 1.04}
{"sequence": "GTTAATCTTG", "switch fluorescence ratio": 1.02}
{"sequence": "GTTAATGTTT", "switch fluorescence ratio": 1.01}
{"sequence": "GTTAATTGTT", "switch fluorescence ratio": 0.945}
{"sequence": "GTTACAAATT", "switch fluorescence ratio": 1.06}
{"sequence": "GTTACATCAG", "switch fluorescence ratio": 1.06}
{"sequence": "GTTACATTAG", "switch fluorescence ratio": 1.05}
{"sequence": "GTTACCAGTA", "switch fluorescence ratio": 0.967}
{"sequence": "GTTACCGATC", "switch fluorescence ratio": 1.11}
{"sequence": "GTTACCTGGC", "switch fluorescence ratio": 1.1}
{"sequence": "GTTACGTCCA", "switch fluorescence ratio": 1.02}
{"sequence": "GTTACGTCTC", "switch fluorescence ratio": 0.979}
{"sequence": "GTTAGACGC", "switch fluorescence ratio": 1.06}
{"sequence": "GTTAGCAACC", "switch fluorescence ratio": 1.13}
{"sequence": "GTTAGCCTTT", "switch fluorescence ratio": 1.02}
{"sequence": "GTTAGGATAA", "switch fluorescence ratio": 1.01}
{"sequence": "GTTAGGATCT", "switch fluorescence ratio": 0.961}
{"sequence": "GTTAGGGATG", "switch fluorescence ratio": 0.965}
{"sequence": "GTTAGTCAGC", "switch fluorescence ratio": 0.965}
{"sequence": "GTTAGTGACA", "switch fluorescence ratio": 1.02}
{"sequence": "GTTAGTTGAG", "switch fluorescence ratio": 0.972}
{"sequence": "GTTATACAT", "switch fluorescence ratio": 1.03}
{"sequence": "GTTATCATTG", "switch fluorescence ratio": 0.998}
{"sequence": "GTTATGGTGT", "switch fluorescence ratio": 0.961}
{"sequence": "GTTATTACTC", "switch fluorescence ratio": 1.04}
{"sequence": "GTTATTCAGG", "switch fluorescence ratio": 1.01}
{"sequence": "GTTCAAATAA", "switch fluorescence ratio": 1.03}
{"sequence": "GTTCAAGAAT", "switch fluorescence ratio": 0.981}
{"sequence": "GTTCAATCAA", "switch fluorescence ratio": 0.986}
{"sequence": "GTTCACGGGG", "switch fluorescence ratio": 1.02}
{"sequence": "GTTCATCACA", "switch fluorescence ratio": 1.01}
{"sequence": "GTTCATTGGT", "switch fluorescence ratio": 1.04}
{"sequence": "GTTCCAACCC", "switch fluorescence ratio": 0.983}
{"sequence": "GTTCCGCACG", "switch fluorescence ratio": 2.8}
{"sequence": "GTTCCGGGCC", "switch fluorescence ratio": 1.05}
{"sequence": "GTTCCTACAG", "switch fluorescence ratio": 1.01}
{"sequence": "GTTCCTGGGT", "switch fluorescence ratio": 1.33}
{"sequence": "GTTCGATGCG", "switch fluorescence ratio": 0.994}
{"sequence": "GTTCGGACAT", "switch fluorescence ratio": 0.999}
{"sequence": "GTTCGGTAA", "switch fluorescence ratio": 1.12}
{"sequence": "GTTCGGTGGG", "switch fluorescence ratio": 0.988}
{"sequence": "GTTCGTTCGT", "switch fluorescence ratio": 1.01}
{"sequence": "GTTCTACGGC", "switch fluorescence ratio": 1.04}
{"sequence": "GTTCTATTTT", "switch fluorescence ratio": 1}
{"sequence": "GTTCTCCTTT", "switch fluorescence ratio": 1.01}
{"sequence": "GTTCTCGGTA", "switch fluorescence ratio": 1.03}
{"sequence": "GTTCTGTTTG", "switch fluorescence ratio": 1.02}
{"sequence": "GTTCTTTGCC", "switch fluorescence ratio": 1.01}
{"sequence": "GTTGAAATTG", "switch fluorescence ratio": 1.01}
{"sequence": "GTTGAAGAAT", "switch fluorescence ratio": 1.03}
{"sequence": "GTTGAGCCAT", "switch fluorescence ratio": 0.989}
{"sequence": "GTTGAGCTGT", "switch fluorescence ratio": 1.02}
{"sequence": "GTTGAGGAGT", "switch fluorescence ratio": 0.978}
{"sequence": "GTTGATACGT", "switch fluorescence ratio": 1.03}
{"sequence": "GTTGATGGCT", "switch fluorescence ratio": 1.07}
{"sequence": "GTTGATTGGT", "switch fluorescence ratio": 0.952}
{"sequence": "GTTGCACCTG", "switch fluorescence ratio": 1.01}
{"sequence": "GTTGCATGGT", "switch fluorescence ratio": 1.05}
{"sequence": "GTTGCATTTT", "switch fluorescence ratio": 1.02}
{"sequence": "GTTGCTTATT", "switch fluorescence ratio": 1.03}
{"sequence": "GTTGGAATAG", "switch fluorescence ratio": 1.11}
{"sequence": "GTTGGACTTA", "switch fluorescence ratio": 1.01}
{"sequence": "GTTGGAGATG", "switch fluorescence ratio": 1}
{"sequence": "GTTGGATCTC", "switch fluorescence ratio": 0.944}
{"sequence": "GTTGGCCATA", "switch fluorescence ratio": 1.02}
{"sequence": "GTTGGCGAAC", "switch fluorescence ratio": 1.06}
{"sequence": "GTTGGCTAAT", "switch fluorescence ratio": 1.01}
{"sequence": "GTTGGCTGTT", "switch fluorescence ratio": 1}
{"sequence": "GTTGGGCTGG", "switch fluorescence ratio": 1}
{"sequence": "GTTGGGTGAA", "switch fluorescence ratio": 0.992}
{"sequence": "GTTGGTCAGT", "switch fluorescence ratio": 0.981}
{"sequence": "GTTGTAATAC", "switch fluorescence ratio": 3.33}
{"sequence": "GTTGTCAGGA", "switch fluorescence ratio": 0.993}
{"sequence": "GTTGTCCCTC", "switch fluorescence ratio": 0.957}
